Measured values taken from paper PMC12040169 (PLOS Biology, 2025).
The list shows a part of the results.

system: T1, C. trachomatis L2/434/Bu expressing GFP (CTL2-GFP); set-up: species or system HeLa; C. trachomatis total inclusion area by high-content imaging, normalised to DMSO; conditions: total inclusion area; 28.5 h, 10 µM; inhibitor
T1 construct: L2/434/Bu GFP intracellular growth in HeLa cells
How it was run: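 Following bulk GFP and resorufin fluorescence reads, infected cells were fixed, Hoechst-stained and imaged on a high-content platform. Inclusion total area and number per well served as growth proxies; nuclei counts indicated host viability. MICs were derived as for the fluorescence assay.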

Row | SMILES | % of control remaining
1 | Cn1c(N2CCC(C(=O)NCC3CC3)CC2)nc2ccccc21 [CBK283957] | 86.1577
2 | CC(C)(Oc1ccc(Cl)cc1)C(=O)Nc1nnc[nH]1 [CBK288220] | 118.624
3 | CCCNC(=O)CN(C)Cc1nc(-c2cccc(C(F)(F)F)c2)no1 [CBK305672] | 71.1181
4 | COc1cccc(C(=O)Nc2ccc(Br)cc2C(=O)O)c1 [CBK022487] | 98.9102
5 | CCOC(=O)c1ccccc1NS(C)(=O)=O [CBK262271] | 68.4619
6 | CC(C)n1cc(C(=O)N2CCCCC2c2nc3ccccc3[nH]2)cn1 (centres unmarked) [CBK283679] | 44.3616
7 | CC(=O)Nc1cc(NC(C)=O)c(O)c(C(=O)O)c1 [CBK009871] | 106.378
8 | CCOC(=O)CNC(=O)Nc1cc2ccccc2c(Br)n1 [CBK063279] | 104.273
9 | CC(C)c1ccc(S(=O)(=O)Nc2ccc(Br)c(F)c2)cc1 [CBK044556] | 30.5654
10 | Cc1cc(COc2nccnc2OC2CCN(CCN3CCOCC3)CC2)no1 [CBK082961T] | 83.1874
11 | O=C(CCC1CCCO1)NC(Cc1ccsc1)c1cccnc1 (centres unmarked) [CBK285159] | 104.307
12 | CCOC(=O)c1ccc(NC(=O)c2ccccc2-c2nc(-c3ccccc3Cl)no2)cc1 [CBK268919] | 108.978
13 | CCCc1cn(C2CCN(c3cc(-n4cc(C)cn4)ncn3)CC2)nn1 [CBK307127] | 52.8765
14 | COc1ccc2c(c1)cc(C)c1n[nH]c(=O)n12 [CBK283766] | 77.3901
15 | C=C(C)Cn1c(SCC(C)C)nnc1-c1ccccc1C(=O)O [CBK200093] | 90.8321
16 | Cc1ccc(NC(=O)c2nc3ccccc3[nH]2)c(C)n1 [CBK200296] | 117.352
17 | O=C1CCCN1CCOc1nccnc1-c1ccccc1Cl [CBK106999] | 74.3079
18 | C/N=C1/c2cn3ccccc3c2CCN1C [CBK022058] | 98.5421
19 | O=C(CN1CCCCC1)N1CCCC1c1nc2ccccc2[nH]1 (centres unmarked) [CBK283935] | 78.8758
20 | COCCN(C(=S)Nc1ccc(C)cc1Cl)C(C)c1cccnc1 (centres unmarked) [CBK294472] | 110.813
21 | CCOC(=O)CCCNC(=O)N1CCCC(CO)C1 (centres unmarked) [CBK156344] | 100.705
22 | Cc1nc(-c2nnc(NC(=O)COc3ccc(Cl)cc3Cl)o2)cs1 [CBK287843] | 103.694
23 | CCN1CCC2(CC1)Nc1cc(Cl)c(S(N)(=O)=O)cc1S(=O)(=O)N2 [CBK010418C] | 62.5002
24 | O=C(NCCc1ccc(O)cc1)c1ccc(-c2ccc(OC(F)(F)F)cc2)nc1 [CBK156224] | 67.0367
25 | O=C(NCc1ccccc1)[C@@H]1Cc2[nH]cnc2CN1C(=O)C1CCCCC1 [CBK288972] | 77.968
26 | CCC(C)CS(=O)(=O)c1nc(C)c(C)n1CC1CCCO1 (centres unmarked) [CBK305107] | 50.8692
27 | COc1ccc(-c2ccccc2NS(=O)(=O)c2ccc3c(c2)CCC(=O)N3)cc1 [CBK286370] | 108.255

Row | SMILES | % of control remaining
28 | O=C(CSc1nc2ccccc2[nH]1)Nc1cccc(C(=O)O)c1 [CBK263225] | 79.5156
29 | Cc1ccc(C2(c3ccc(C)cc3)CC2C(=O)Nc2ccccc2[N+](=O)[O-])cc1 (centres unmarked) [CBK263591] | 105.11
30 | COC(=O)[C@H]1CCc2ccccc2N1C(=O)c1ccco1 [CBK284259] | 97.412
31 | c1cncc(COc2nccnc2OC2CCN(Cc3cccnc3)CC2)c1 [CBK083158] | 85.2523
32 | Cc1ccc(C(=O)n2nc(-c3cccnc3)nc2N)cc1 [CBK288172] | 100.123
33 | N#CCn1nnc(-c2ccc3c(c2)OCO3)n1 [CBK062663] | 102.93
34 | Cn1c(=O)c2c(nc(CN3CCOCC3)n2Cc2c(F)cccc2Cl)n(C)c1=O [CBK269224] | 101.059
35 | Cn1nc(-c2ccc(F)cc2)cc1C(=O)NCCn1ccnc1 [CBK281576] | 109.61
36 | O=S(=O)(CCN1CCN(C(c2ccccc2)c2ccccc2)CC1)c1ccc(Cl)cc1 [CBK074810] | 88.6932
37 | CC1CCN(S(=O)(=O)c2ccc(C(=O)O)cc2)CC1 [CBK287195] | 95.6202
38 | O=C(c1csc2c1CCCC2)N1CCc2c(nc[nH]c2=O)C1 [CBK283717] | 90.4449
39 | COc1cc(Nc2cccc(-c3ccsc3)n2)cc(OC)c1OC [CBK036987] | 83.3966
40 | Cc1cc(C)c(C)c(S(=O)(=O)Nc2ccc(C(=O)NCc3ccccn3)cc2)c1C [CBK267275] | 115.062
41 | Fc1ccc(Oc2nccnc2N2CCN(Cc3ccccc3F)CC2)cc1 [CBK083009T] | 95.762
42 | CC(C)(C)c1ccc(-c2nc3ncccc3cc2O)cc1 [CBK073703] | 94.7202
43 | Cc1ccc(CNc2oc(COc3ccc(Br)cc3)nc2C#N)cc1 [CBK074467] | 81.4139
44 | O=C(O)c1ccc(NC2CCS(=O)(=O)C2)cc1 (centres unmarked) [CBK287168] | 126.14
45 | COc1ccc(CSc2nc(N)c3c4c(sc3n2)CCCC4)cc1 [CBK131876] | 88.5742
46 | Cc1ccc(C)c2[nH]c(=O)c(CN(Cc3cccnc3)C(=O)NC3CCCCC3)cc12 [CBK068091] | 87.6869
47 | CCc1nnc(NS(=O)(=O)c2ccc(Nc3ccc4nonc4c3[N+](=O)[O-])cc2)s1 [CBK261445] | 87.1404
48 | CC1=NNC(=O)C1CCC(=O)N/N=C/C(Br)=C/c1ccccc1 (centres unmarked) [CBK262929] | 92.8774
49 | Cc1ccnc2nc(C(=O)OC(C)C(=O)c3ccc4c(c3)CCC4)nn12 (centres unmarked) [CBK304528] | 68.9285
50 | O=C1NN=C(Cc2ccccc2)C1c1ccccc1 (centres unmarked) [CBK067757] | 95.7977
51 | Cc1cc(C)cc(C(=O)N(CCc2ccccc2)C2CC3CCC(C2)N3C)c1 (centres unmarked) [CBK262612C] | 88.0901
52 | CCC1(CC)OC(N[C@@H](C)c2ccc3ccccc3c2)=NC1=O [CBK123982] | 96.2763
53 | Cc1oc2ccc(O)cc2c1C(=O)NCCCN1CC(C)CC(C)C1 (centres unmarked) [CBK282161] | 100.075
